The list shows a part of the results.

The subject of the experiment is T1, C. trachomatis L2/434/Bu expressing GFP (CTL2-GFP).
T1 construct: L2/434/Bu GFP intracellular growth in HeLa cells
On the set-up: species or system HeLa; C. trachomatis total inclusion area by high-content imaging, normalised to DMSO. The note with it: total inclusion area; 28.5 h, 10 µM; inhibitor. The method, boiled down: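 After bulk GFP and resorufin fluorescence reads, cells were fixed, stained with Hoechst and imaged by high-content microscopy. Inclusion area and number (GFP) stood in for chlamydial growth, nuclei count (Hoechst) for host cell viability. MICs were derived as for the bulk readout.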
`COc1nnc(-c2ccc(N3CCOCC3)c(NC(=O)COc3ccc(C)cc3)c2)c2ccccc12` [CBK266103]: the “% of control remaining” value is 124.182.

For the molecule `CCn1nc(C)c(NC(=O)CN(C)Cc2ccccc2C(F)(F)F)c1C` [CBK306771], the “% of control remaining” value turned out to be 72.1934.

In the case of `O=C(CNS(=O)(=O)c1ccc(Br)cc1)NCc1cccnc1` [CBK266295], the “% of control remaining” value is listed as 124.444.

Take `Fc1cccc(-c2nc3c(s2)CN(C2CCOCC2)CC3)c1` [CBK281647]: the “% of control remaining” value was determined as 93.2402.

`O=C(CCCC1CC1)N1CCn2c(nnc2-c2cncc(Br)c2)C1` [CBK304767]: the “% of control remaining” value was 107.285.

`CC(=O)OCc1c(C)cc(C)c(CN(C)C(C)c2ccon2)c1C` (stereo not shown) [CBK306780]: the “% of control remaining” value is on record as 44.901.

Consider `CCc1noc(C)c1C(=O)Nc1cc(S(=O)(=O)N2CCCCC2)ccc1N(C)C` [CBK295328], for which the “% of control remaining” value is 99.7415.

For `O=C(CSc1nnc(-c2ccco2)c(-c2ccco2)n1)Nc1ccccc1[N+](=O)[O-]` [CBK265762], the “% of control remaining” value stood at 138.915.

On to `O=C(O)Cc1sc(-c2ccc3c(c2)OCO3)nc1-c1ccccc1` [CBK200114], for which the “% of control remaining” value stood at 94.0993.

Turning to `c1ccc(-c2nc3cc4ccccc4cc3[nH]2)nc1` [CBK000130], the “% of control remaining” value was 5.749.

On to `CCOC(=O)Cn1c(C)nc2ccccc21` [CBK115311], for which the “% of control remaining” value is reported as 85.3904.

Regarding `COc1ccc2nc(NCc3ccccc3)sc2c1` [CBK287485], the “% of control remaining” value stood at 18.2337.

Consider `O=C1NCCN1CCOc1nccnc1-c1cnn(Cc2ccccc2)c1` [CBK107094], for which the “% of control remaining” value was 83.2579.

Turning to `CC1(C)C(=O)Nc2ccccc2N1C(=O)COc1ncnc2sc3c(c12)CCC3` [CBK297530], the “% of control remaining” value turned out to be 97.0409.

Consider `Cc1ccc(CNCc2cc3c(C)nn(-c4ccccc4)c3[nH]c2=O)o1` [CBK282896], for which the “% of control remaining” value is given as 104.734.

Regarding `Cc1ccccc1CNC(=O)CCc1c(C)nc2nc(N)nn2c1C` [CBK304987], the “% of control remaining” value is reported as 77.3424.

As to `Cc1nc2cccnc2n1C1CCN(C(=O)C(C)(C)C)CC1` [CBK282426], the “% of control remaining” value worked out at 117.782.

For `CC(C)NC(=O)Nc1ccc(C(=O)N(CCC#N)C(C)C2CC2)cc1` (stereo not shown) [CBK305312], the “% of control remaining” value is on record as 88.1504.

For the molecule `O=C(Nc1nc2ccccc2[nH]1)c1ccc(N2CCCS2(=O)=O)cc1` [CBK304582], the “% of control remaining” value is 36.9967.

Consider `COc1ccc(N2CC(C(=O)Nc3ccc(C(=O)O)cc3)CC2=O)cc1` (stereo not shown) [CBK268782], for which the “% of control remaining” value is 110.821.

As for `CC(C)C(=O)Nc1cc2cccnc2nc1-c1ccsc1` [CBK073649], the “% of control remaining” value was determined as 99.8352.

Turning to `COc1ccc(C[C@@H]2NC(=O)[C@H]3CN(C(=O)Nc4cccc(OC)c4)CCN3C2=O)cc1` [CBK289617], the “% of control remaining” value was found to be 89.2822.
